Data taken from the RNAGym collection of RNA variant scans (doi:10.1101/gad.245936.114).
This sample is rich in variants without activity.

B1: tRNA (parent)
chain: CUCUCGGUAGCCAAGUUGGUUUAAGGCGCAAGACUUUAAUUUAUCACUACGAAAUCUUGAGAUCGGGCGUUCGACUCGCCCCCGGGAGAUUUUUUCCUCGAGCAA

Variants of: B1
Assay: nonsense suppression (GFP-seq) (ratio to wild type); higher = more function; SUP4oc tRNA, yeast GFP reporter sort-seq
In short: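 Nonsense suppression (GFPSEQ) is the median GFP/RFP ratio of each sorting bin, weighted by the variant's estimated share of cells in that bin and expressed relative to the unmutated parent tRNA. Yeast strains carried genome-integrated variants of an ochre-suppressor tRNA from a library with ~3% random mutations, plus a galactose-driven GFP ochre reporter and RFP, and were grown in raffinose/galactose medium containing 80 mg/L adenine. Cells were sorted into GFP/RFP bins, each bin was Illumina-sequenced (phred ≥30), and variants were kept only with ≥100 reads and ≥30 cells.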

U35G C68A and U35G C68G cannot be ordered by nonsense suppression: no more than 0.026 for the first, no more than 0.026 for the second.

C34A U35A A62G and A33G G61C A89G cannot be ordered by nonsense suppression: no more than 0.026 for the first, no more than 0.026 for the second.

U35C G86A A89C and A33U G67U U76C cannot be ordered by nonsense suppression: no more than 0.026 for the first, no more than 0.026 for the second.

C34G U55C G59C and C34U U55G C56A C75G C81A cannot be ordered by nonsense suppression: no more than 0.026 for the first, no more than 0.026 for the second.

C34A G85U and A33U A60C U70C U71A cannot be ordered by nonsense suppression: no more than 0.026 for the first, no more than 0.026 for the second.

A33G C34G and C34U A87U cannot be ordered by nonsense suppression: no more than 0.026 for the first, no more than 0.026 for the second.

C34U A87G and C34G G65C G67A cannot be ordered by nonsense suppression: no more than 0.026 for the first, no more than 0.026 for the second.

C34G U57C and A33G G65A G85U cannot be ordered by nonsense suppression: no more than 0.026 for the first, no more than 0.026 for the second.

C34U A62C and C34U A62G cannot be ordered by nonsense suppression: no more than 0.026 for the first, no more than 0.026 for the second.

C34U A62U and U35C G65A cannot be ordered by nonsense suppression: no more than 0.026 for the first, no more than 0.026 for the second.

C34U G65U and C34U U57A G73A cannot be ordered by nonsense suppression: no more than 0.026 for the first, no more than 0.026 for the second.

C34G G59U A60C G66U and U35A C72G cannot be ordered by nonsense suppression: no more than 0.026 for the first, no more than 0.026 for the second.

C34G C56U G69C and C34G G66C cannot be ordered by nonsense suppression: no more than 0.026 for the first, no more than 0.026 for the second.

C34A C68A A87U and C34A C68A A87G cannot be ordered by nonsense suppression: no more than 0.026 for the first, no more than 0.026 for the second.

A33G U35G and A33U A74C cannot be ordered by nonsense suppression: no more than 0.026 for the first, no more than 0.026 for the second.

C34A C82G and U35C G85U cannot be ordered by nonsense suppression: no more than 0.026 for the first, no more than 0.026 for the second.

C34G C82A and C34G C82U cannot be ordered by nonsense suppression: no more than 0.026 for the first, no more than 0.026 for the second.

C34U U55C and A33U U57C C72G A89C cannot be ordered by nonsense suppression: no more than 0.026 for the first, no more than 0.026 for the second.

First: U35C C56A
Second: A33G C80U
The nonsense suppression of the first is lower: no more than 0.026 for the first, 0.0422 for the second.

A33G C80G and A33U C56G U57A U58A G73A G78C cannot be ordered by nonsense suppression: no more than 0.026 for the first, no more than 0.026 for the second.

A33C U58C A60C C72G and C34U G67A C68U G78A cannot be ordered by nonsense suppression: no more than 0.026 for the first, no more than 0.026 for the second.

A33U G69C A87U and A33U U58C G69C cannot be ordered by nonsense suppression: no more than 0.026 for the first, no more than 0.026 for the second.

U35A A54U G85U and A33C U57G cannot be ordered by nonsense suppression: no more than 0.026 for the first, no more than 0.026 for the second.

A33U C68U C80U and U35A A74C cannot be ordered by nonsense suppression: no more than 0.026 for the first, no more than 0.026 for the second.

U35A and U35G cannot be ordered by nonsense suppression: no more than 0.026 for the first, no more than 0.026 for the second.

U35C and C34U U63C G88C cannot be ordered by nonsense suppression: no more than 0.026 for the first, no more than 0.026 for the second.

A33G U58G and U35G C56G G59A cannot be ordered by nonsense suppression: no more than 0.026 for the first, no more than 0.026 for the second.

C34U A54C G73C U76G and U35A U55A G88A cannot be ordered by nonsense suppression: no more than 0.026 for the first, no more than 0.026 for the second.

A33G C34G G73C C83G and A33U C72U A74C cannot be ordered by nonsense suppression: no more than 0.026 for the first, no more than 0.026 for the second.

U35G C83U and C34A U35G cannot be ordered by nonsense suppression: no more than 0.026 for the first, no more than 0.026 for the second.

C34U C56A G61C and C34U G84C cannot be ordered by nonsense suppression: no more than 0.026 for the first, no more than 0.026 for the second.

C34U C77G C79G A89G and G32U G69A cannot be ordered by nonsense suppression: no more than 0.026 for the first, no more than 0.026 for the second.

A33U G59C G61C and A33U G59C G61A cannot be ordered by nonsense suppression: no more than 0.026 for the first, no more than 0.026 for the second.

C34G A89U and C34G A89C cannot be ordered by nonsense suppression: no more than 0.026 for the first, no more than 0.026 for the second.

C34A U55C G69U A89U and C34G U76A cannot be ordered by nonsense suppression: no more than 0.026 for the first, no more than 0.026 for the second.

U35G C64G A74G and C34U C75A cannot be ordered by nonsense suppression: no more than 0.026 for the first, no more than 0.026 for the second.

Going from A33G G61A to U35C U70A, the nonsense suppression falls from 0.0709 to no more than 0.026.

C34A U58C and C34A U58G cannot be ordered by nonsense suppression: no more than 0.026 for the first, no more than 0.026 for the second.

A33G C81G and U35A U57G cannot be ordered by nonsense suppression: no more than 0.026 for the first, no more than 0.026 for the second.

A33G G59A C77A C83A G88A and C34G C81A cannot be ordered by nonsense suppression: no more than 0.026 for the first, no more than 0.026 for the second.

C34A G67C C79G and A33C U35C C83A cannot be ordered by nonsense suppression: no more than 0.026 for the first, no more than 0.026 for the second.

C34U U63C C77G and C34G U71A C80U cannot be ordered by nonsense suppression: no more than 0.026 for the first, no more than 0.026 for the second.

A33U C68G A74C and C34U A62C C81U cannot be ordered by nonsense suppression: no more than 0.026 for the first, no more than 0.026 for the second.

A33C C80A G85C and C34A G65C G85C cannot be ordered by nonsense suppression: no more than 0.026 for the first, no more than 0.026 for the second.

Compared with A33G, A33U is lower in nonsense suppression: 0.346 for the first, 0.0699 for the second.

A33C and A33G C34A G73C G85C A89C cannot be ordered by nonsense suppression: no more than 0.026 for the first, no more than 0.026 for the second.

U35G C75U and A33G G59A A87G cannot be ordered by nonsense suppression: no more than 0.026 for the first, no more than 0.026 for the second.

C34U C64U and A33C C56G C81U cannot be ordered by nonsense suppression: no more than 0.026 for the first, no more than 0.026 for the second.

A33G A74C C80A and U35G A54C G65C cannot be ordered by nonsense suppression: no more than 0.026 for the first, no more than 0.026 for the second.

C34U A62C G73U and G32U G85C cannot be ordered by nonsense suppression: no more than 0.026 for the first, no more than 0.026 for the second.

A33U U57C A62G and C34U U58A cannot be ordered by nonsense suppression: no more than 0.026 for the first, no more than 0.026 for the second.

C34U U58G and C34A C64A cannot be ordered by nonsense suppression: no more than 0.026 for the first, no more than 0.026 for the second.

G32U U70C and G32U U70G cannot be ordered by nonsense suppression: no more than 0.026 for the first, no more than 0.026 for the second.

C34U A60C G66C and C34A A62U cannot be ordered by nonsense suppression: no more than 0.026 for the first, no more than 0.026 for the second.

A33C G67C and A33C G67A cannot be ordered by nonsense suppression: no more than 0.026 for the first, no more than 0.026 for the second.

C34G G61C C83G and A33U U57C cannot be ordered by nonsense suppression: no more than 0.026 for the first, no more than 0.026 for the second.

A33G U35G U55A G69A and A33U C64A G88A cannot be ordered by nonsense suppression: no more than 0.026 for the first, no more than 0.026 for the second.

C34A G66C U76A and C34U G66U cannot be ordered by nonsense suppression: no more than 0.026 for the first, no more than 0.026 for the second.

C34U G66C and C34U G66A cannot be ordered by nonsense suppression: no more than 0.026 for the first, no more than 0.026 for the second.

C34G U57A A60C and C34U U35G U57C G61A C82U cannot be ordered by nonsense suppression: no more than 0.026 for the first, no more than 0.026 for the second.

A33G G69A and C34A C83A cannot be ordered by nonsense suppression: no more than 0.026 for the first, no more than 0.026 for the second.

C34G G84C and C34G G84U cannot be ordered by nonsense suppression: no more than 0.026 for the first, no more than 0.026 for the second.

C34U C68G U70A A89G and A33G A87G G88A cannot be ordered by nonsense suppression: no more than 0.026 for the first, no more than 0.026 for the second.

G32U C34A and A33U G61C cannot be ordered by nonsense suppression: no more than 0.026 for the first, no more than 0.026 for the second.

G32U U63G G65U and C34G G69C cannot be ordered by nonsense suppression: no more than 0.026 for the first, no more than 0.026 for the second.

C34G G69A and C34U G73U C79G cannot be ordered by nonsense suppression: no more than 0.026 for the first, no more than 0.026 for the second.

G32U U71G and U35C A62C C77A cannot be ordered by nonsense suppression: no more than 0.026 for the first, no more than 0.026 for the second.

A33U U76C G84C and C34G G67C A87G cannot be ordered by nonsense suppression: no more than 0.026 for the first, no more than 0.026 for the second.

A33G G59U C79A and A33G A54U U71G cannot be ordered by nonsense suppression: no more than 0.026 for the first, no more than 0.026 for the second.

C34A U76A and A33U G86A cannot be ordered by nonsense suppression: no more than 0.026 for the first, no more than 0.026 for the second.

A33G C77U G78A and A33G U58G G66C cannot be ordered by nonsense suppression: no more than 0.026 for the first, no more than 0.026 for the second.

A33U U58A G66A G69A C82G and C34G U70A G78U cannot be ordered by nonsense suppression: no more than 0.026 for the first, no more than 0.026 for the second.

C34G U63G C64U U70G C79G and A33C A62G cannot be ordered by nonsense suppression: no more than 0.026 for the first, no more than 0.026 for the second.

A33G G61A C79A and A33C A62C G67C cannot be ordered by nonsense suppression: no more than 0.026 for the first, no more than 0.026 for the second.

C34U C82G and A33G U71G cannot be ordered by nonsense suppression: no more than 0.026 for the first, no more than 0.026 for the second.

U35G G59A U63G C82A and C34A G69A C79G cannot be ordered by nonsense suppression: no more than 0.026 for the first, no more than 0.026 for the second.

G32U G67A U71G and U35A A74G G78C cannot be ordered by nonsense suppression: no more than 0.026 for the first, no more than 0.026 for the second.

U35C C77A and A33C U63C U70A cannot be ordered by nonsense suppression: no more than 0.026 for the first, no more than 0.026 for the second.

A33G U58G U63G and C34U U63A cannot be ordered by nonsense suppression: no more than 0.026 for the first, no more than 0.026 for the second.

C34U U63G and U35A G66A cannot be ordered by nonsense suppression: no more than 0.026 for the first, no more than 0.026 for the second.

A33C A87C and U35G C77G cannot be ordered by nonsense suppression: no more than 0.026 for the first, no more than 0.026 for the second.

U35C U70A G78A and C34G G73U C75U C77A cannot be ordered by nonsense suppression: no more than 0.026 for the first, no more than 0.026 for the second.

A33U U63C U71G C77U and A33C A62C G66C cannot be ordered by nonsense suppression: no more than 0.026 for the first, no more than 0.026 for the second.

In the case of A33C G78C, the nonsense suppression is reported as no more than 0.026.
